Measurements taken from publication PMC4336329 (PLoS ONE, 2015).
The whole screen tested about 310,000 compounds, of which about 14,000 (4.5%) showed an effect of 50% or more. The effect is printed as a negative number. This is one part of the list.

The molecules below were run against human ether-à-go-go-related gene (hERG) potassium channel (human, UniProt Q12809) (assay: primary screen, population patch clamp on CHO cells stably expressing hERG).
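Further: peak tail current of the secondary pulse compared with the same well before compound.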

Sequence of human ether-à-go-go-related gene (hERG) potassium channel (Q12809 whole entry, looked up): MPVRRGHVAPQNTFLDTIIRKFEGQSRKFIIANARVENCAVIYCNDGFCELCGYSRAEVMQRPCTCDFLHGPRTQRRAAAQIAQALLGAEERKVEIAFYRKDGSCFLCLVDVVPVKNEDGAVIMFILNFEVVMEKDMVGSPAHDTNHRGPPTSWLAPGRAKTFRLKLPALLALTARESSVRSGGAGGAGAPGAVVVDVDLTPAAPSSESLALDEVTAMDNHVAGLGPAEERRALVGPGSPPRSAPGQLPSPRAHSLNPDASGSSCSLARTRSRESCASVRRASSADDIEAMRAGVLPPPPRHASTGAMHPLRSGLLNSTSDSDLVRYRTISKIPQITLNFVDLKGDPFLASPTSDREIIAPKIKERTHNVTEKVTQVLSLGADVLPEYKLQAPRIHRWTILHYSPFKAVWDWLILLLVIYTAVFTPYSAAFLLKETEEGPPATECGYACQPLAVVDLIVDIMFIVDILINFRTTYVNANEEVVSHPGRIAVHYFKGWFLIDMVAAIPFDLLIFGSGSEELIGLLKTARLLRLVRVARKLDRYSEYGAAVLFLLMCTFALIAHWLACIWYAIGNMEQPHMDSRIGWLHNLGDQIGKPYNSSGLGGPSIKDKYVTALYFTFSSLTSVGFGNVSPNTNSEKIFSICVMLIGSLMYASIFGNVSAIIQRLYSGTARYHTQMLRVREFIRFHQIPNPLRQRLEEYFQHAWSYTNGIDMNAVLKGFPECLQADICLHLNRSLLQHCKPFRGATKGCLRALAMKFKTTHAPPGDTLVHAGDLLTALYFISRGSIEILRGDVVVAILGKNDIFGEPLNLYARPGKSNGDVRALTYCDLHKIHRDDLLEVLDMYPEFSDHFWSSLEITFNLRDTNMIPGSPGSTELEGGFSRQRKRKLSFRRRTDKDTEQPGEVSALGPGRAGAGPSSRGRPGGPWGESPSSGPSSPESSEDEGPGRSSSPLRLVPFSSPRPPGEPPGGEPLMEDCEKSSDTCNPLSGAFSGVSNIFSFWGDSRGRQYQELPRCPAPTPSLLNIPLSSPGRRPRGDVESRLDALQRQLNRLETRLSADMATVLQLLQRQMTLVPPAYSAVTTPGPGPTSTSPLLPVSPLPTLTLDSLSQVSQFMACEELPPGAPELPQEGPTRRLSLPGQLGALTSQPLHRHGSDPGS

Compound	hERG current change (%, negative = inhibition) at 10uM [%]
Cc1cc(C(=O)CN2CCN(CC(=O)Nc3cccc(F)c3)CC2)c(C)n1C1CC1	-56.2
CC(=O)N1N=C(c2ccc(Br)cc2)OC12CCCC2	9.81
O=C(CCC(=O)N1C[C@H]2C[C@@H](C1)c1cccc(=O)n1C2)NCc1ccccc1C(F)(F)F	5.54
CCn1cnc2scc(-c3ccccc3)c2c1=O	-11.5
Cc1onc(-c2c(Cl)cccc2Cl)c1NC(=O)NN(C)c1ccc([N+](=O)[O-])cn1	11.8
COc1ccc(CCNC(=O)c2cc(-c3cc(C)ccc3O)n[nH]2)cc1OC	12.2
CCN(CC)C(=O)C1CCCN(Cc2ccc(OC)c(C)c2)C1 (stereo not shown)	-10.7
O=c1c(C(c2ccc(F)cc2)c2c(O)nc3n(c2=O)CCS3)c(O)nc2n1CCS2	13.5
NC(=O)Cn1nc(-c2ccccc2)nc1-c1ccccc1	6.3
Cc1ccc(CNC(=O)C(C)C2Sc3ccccc3NC2=O)cc1 (stereo not shown)	-6.3
COc1ccc(C(=O)N/N=C(\C)CC(=O)Nc2ccc3c(c2)OCO3)cc1	-37.1
COc1cc2c(cc1OC)C1=CC(=O)C(=O)N1C(C)(C)C2	10.6
Cc1cc(OCC(=O)NCc2cccnc2)c2c(C)cc(=O)oc2c1	-27.9
Cc1ccccc1CO/N=C/c1[nH]ncc1Br	-5.13
CC(c1ccccc1)C1CC(=O)N(Cc2ccccc2)C1=O (stereo not shown)	-10.8
CCOC(=O)c1c(C=O)c(C)n(Cc2ccc(C)cc2)c1C	-21.5
O=C(CC12CC3CC(CC(C3)C1)C2)NC(=S)Nc1ccc(CN2CCOCC2)cc1	12.4
COc1ccc(-c2cn3nc(SCC(=O)NC4CCCCC4)ccc3n2)cc1	22.6
COCc1cc(CN(C)C(=O)C2CCC(=O)N(Cc3cccc(OC)c3)C2)[nH]n1 (stereo not shown)	16.7
CCOC(=O)c1c(C)[nH]c(C(=O)OCC(=O)Nc2cc(C)nn2-c2ccccc2)c1C	-2.69
COc1ncccc1C(=O)N1CCCC(N2CCN(c3ccc(F)cc3)CC2)C1 (stereo not shown)	-26.7
COC(=O)C1CSC(C(=O)OC)N1C(=O)Nc1ccc(Cl)c(Cl)c1 (stereo not shown)	-3.16

Compound	hERG current change (%, negative = inhibition) at 10uM [%]
N#CCSc1nc2c(cc1C#N)CCCCCC2	1.89
Cc1cc(=O)oc(C)c1C(=O)NC1CC(C)(C)NC(C)(C)C1	13.2
COc1ccc(OCCCC(=O)OCC(=O)Nc2ccc(Cl)cn2)cc1	3.42
Cn1c(/C(C#N)=C/c2cccc(O)c2)nc2ccccc21	0.375
COc1c(Cl)cc(-c2noc(C)c2C(=O)NC(C)C)cc1Cl	4.84
Cc1cc(C)c(C(=O)NC2CCCc3c2cnn3-c2cccc(C)c2C)o1 (stereo not shown)	-7.96
COC1CCCCC1Nc1cccc(SC)c1 (stereo not shown)	1.68
Cc1ccc(NC(=O)C(=O)NCC2CCCN2S(=O)(=O)c2cccs2)cc1 (stereo not shown)	-25
O=C1NC(=O)N(c2ccc3c(c2)OCO3)C(=O)/C1=C/c1ccc(N2CCCC2)o1	9.27
CCCCOc1ccc(CNC(=O)NS(=O)(=O)c2ccc(OCC(C)C)cc2)cc1	-16.9
COc1cc(C(=O)N/N=C(\Cc2ncc[nH]2)c2ccccc2)cc(OC)c1OC	6.99
COC(=O)[C@@H](Cc1ccccc1)NC(=O)[C@H]1CCC(=O)N1C(=O)OCc1ccccc1	1.18
COc1ccc(C(=O)CSc2nnc(-c3ccc(S(=O)(=O)N4CCOCC4)cc3)o2)cc1	7.62
Cc1ccccc1CN1CCN(C(=O)c2ccco2)CC1.O=C(O)C(=O)O	7.41
COc1ccc2c(c1OC)C(=O)N1c3ccccc3C(=O)N(c3ccccc3)C21 (stereo not shown)	-6.13
O=C(CCCc1ccccc1)NCc1ccc2c(c1)OCO2	-2.49
CCN(CC)C(=O)COc1ccc(/C(C)=N/NC(=O)c2ccccc2Br)cc1	8.89
CCOC(=O)C1CCN(c2c(NCCN3CCN(c4ccccc4)CC3)c(=O)c2=O)CC1	-10.7
CS(=O)(=O)c1ccc2nc(NC(=O)CCS(=O)(=O)c3ccccc3)sc2c1	19.7
CC1CCN(C(=O)c2nc[nH]c2C(=O)N2CCc3ccccc3C2)CC1	14.1
CC(C)CCNC(=O)c1cc2c(=O)n3ccccc3nc2s1	-1.28
